Assay results reported in paper PMC9911399, “Two distinct binding modes provide the RNA-binding protein RbFox with extraordinary sequence specificity”.
Substitutions are numbered along the chain they refer to; changes in the protein carry UniProt numbers. The list shows a part of the results.

T1: RBFOX1 RRM RbFoxmut (Fox-RRM*) (Homo sapiens, UniProt Q9NWB1 109-208, R118D;E147R;N151S;E152T)
T1 sequence: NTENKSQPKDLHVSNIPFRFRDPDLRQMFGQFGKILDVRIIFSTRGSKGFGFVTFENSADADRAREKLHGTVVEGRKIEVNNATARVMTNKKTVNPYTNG

B1: ACGUAAG (DNA:RNA)
RNA: GGGAGACCGGAAUUCAGAUUGUCCACGUAAGUUAAAUCCCGUCGUAGCCACCA
DNA 1: CAATCTGAATTCCGGTCTCCC
DNA 2: TGGTGGCTACGACGGGATT
B2: CGCUUCG (DNA:RNA)
RNA: B1 RNA with A25C, C26G, G27C, A29U, A30C
DNA 1: CAATCTGAATTCCGGTCTCCC
DNA 2: TGGTGGCTACGACGGGATT
B3: CGCCAGA (DNA:RNA)
RNA: B1 RNA with A25C, C26G, G27C, U28C, A30G, G31A
DNA 1: CAATCTGAATTCCGGTCTCCC
DNA 2: TGGTGGCTACGACGGGATT
B4: ACCGCCA (DNA:RNA)
RNA: B1 RNA with G27C, U28G, A29C, A30C, G31A
DNA 1: CAATCTGAATTCCGGTCTCCC
DNA 2: TGGTGGCTACGACGGGATT
B5: ACAACAA (DNA:RNA)
RNA: B1 RNA with G27A, U28A, A29C, G31A
DNA 1: CAATCTGAATTCCGGTCTCCC
DNA 2: TGGTGGCTACGACGGGATT
B6: UGAUAGA (DNA:RNA)
RNA: B1 RNA with A25U, C26G, G27A, A30G, G31A
DNA 1: CAATCTGAATTCCGGTCTCCC
DNA 2: TGGTGGCTACGACGGGATT
B7: GCCUAGC (DNA:RNA)
RNA: B1 RNA with A25G, G27C, A30G, G31C
DNA 1: CAATCTGAATTCCGGTCTCCC
DNA 2: TGGTGGCTACGACGGGATT
B8: CCGAGUG (DNA:RNA)
RNA: B1 RNA with A25C, U28A, A29G, A30U
DNA 1: CAATCTGAATTCCGGTCTCCC
DNA 2: TGGTGGCTACGACGGGATT
B9: CUGUGCU (DNA:RNA)
RNA: B1 RNA with A25C, C26U, A29G, A30C, G31U
DNA 1: CAATCTGAATTCCGGTCTCCC
DNA 2: TGGTGGCTACGACGGGATT
B10: UCUACAA (DNA:RNA)
RNA: B1 RNA with A25U, G27U, U28A, A29C, G31A
DNA 1: CAATCTGAATTCCGGTCTCCC
DNA 2: TGGTGGCTACGACGGGATT
B11: AGCUGCG (DNA:RNA)
RNA: B1 RNA with C26G, G27C, A29G, A30C
DNA 1: CAATCTGAATTCCGGTCTCCC
DNA 2: TGGTGGCTACGACGGGATT
B12: GCCGAGC (DNA:RNA)
RNA: B1 RNA with A25G, G27C, U28G, A30G, G31C
DNA 1: CAATCTGAATTCCGGTCTCCC
DNA 2: TGGTGGCTACGACGGGATT
B13: GCCACUA (DNA:RNA)
RNA: B1 RNA with A25G, G27C, U28A, A29C, A30U, G31A
DNA 1: CAATCTGAATTCCGGTCTCCC
DNA 2: TGGTGGCTACGACGGGATT
B14: AGUGCCG (DNA:RNA)
RNA: B1 RNA with C26G, G27U, U28G, A29C, A30C
DNA 1: CAATCTGAATTCCGGTCTCCC
DNA 2: TGGTGGCTACGACGGGATT
B15: AGAUCAA (DNA:RNA)
RNA: B1 RNA with C26G, G27A, A29C, G31A
DNA 1: CAATCTGAATTCCGGTCTCCC
DNA 2: TGGTGGCTACGACGGGATT
B16: GUCCUGG (DNA:RNA)
RNA: B1 RNA with A25G, C26U, G27C, U28C, A29U, A30G
DNA 1: CAATCTGAATTCCGGTCTCCC
DNA 2: TGGTGGCTACGACGGGATT
B17: ACGUCUU (DNA:RNA)
RNA: B1 RNA with A29C, A30U, G31U
DNA 1: CAATCTGAATTCCGGTCTCCC
DNA 2: TGGTGGCTACGACGGGATT
B18: GGAAGUG (DNA:RNA)
RNA: B1 RNA with A25G, C26G, G27A, U28A, A29G, A30U
DNA 1: CAATCTGAATTCCGGTCTCCC
DNA 2: TGGTGGCTACGACGGGATT
B19: UAGAUUU (DNA:RNA)
RNA: B1 RNA with A25U, C26A, U28A, A29U, A30U, G31U
DNA 1: CAATCTGAATTCCGGTCTCCC
DNA 2: TGGTGGCTACGACGGGATT
B20: GCACAAC (DNA:RNA)
RNA: B1 RNA with A25G, G27A, U28C, G31C
DNA 1: CAATCTGAATTCCGGTCTCCC
DNA 2: TGGTGGCTACGACGGGATT
B21: UAAAAAU (DNA:RNA)
RNA: B1 RNA with A25U, C26A, G27A, U28A, G31U
DNA 1: CAATCTGAATTCCGGTCTCCC
DNA 2: TGGTGGCTACGACGGGATT
B22: AAACCCU (DNA:RNA)
RNA: B1 RNA with C26A, G27A, U28C, A29C, A30C, G31U
DNA 1: CAATCTGAATTCCGGTCTCCC
DNA 2: TGGTGGCTACGACGGGATT
B23: CCAGCAG (DNA:RNA)
RNA: B1 RNA with A25C, G27A, U28G, A29C
DNA 1: CAATCTGAATTCCGGTCTCCC
DNA 2: TGGTGGCTACGACGGGATT
B24: AGCACAA (DNA:RNA)
RNA: B1 RNA with C26G, G27C, U28A, A29C, G31A
DNA 1: CAATCTGAATTCCGGTCTCCC
DNA 2: TGGTGGCTACGACGGGATT
B25: UGAAGAG (DNA:RNA)
RNA: B1 RNA with A25U, C26G, G27A, U28A, A29G
DNA 1: CAATCTGAATTCCGGTCTCCC
DNA 2: TGGTGGCTACGACGGGATT
B26: UAGAACC (DNA:RNA)
RNA: B1 RNA with A25U, C26A, U28A, A30C, G31C
DNA 1: CAATCTGAATTCCGGTCTCCC
DNA 2: TGGTGGCTACGACGGGATT
B27: UAUGUGU (DNA:RNA)
RNA: GGGAGACCGGAAUUCAGAUUGUCCUAUGUGUUUAAAUCCCGUCGUAGCCACCA
DNA 1: CAATCTGAATTCCGGTCTCCC
DNA 2: TGGTGGCTACGACGGGATT
B28: CACGACG (DNA:RNA)
RNA: B1 RNA with A25C, C26A, G27C, U28G, A30C
DNA 1: CAATCTGAATTCCGGTCTCCC
DNA 2: TGGTGGCTACGACGGGATT
B29: CACAGUU (DNA:RNA)
RNA: B27 RNA with U25C, U27C, G28A, U29G, G30U
DNA 1: CAATCTGAATTCCGGTCTCCC
DNA 2: TGGTGGCTACGACGGGATT
B30: ACCGCGU (DNA:RNA)
RNA: B27 RNA with U25A, A26C, U27C, U29C
DNA 1: CAATCTGAATTCCGGTCTCCC
DNA 2: TGGTGGCTACGACGGGATT
B31: CUAUUCC (DNA:RNA)
RNA: B1 RNA with A25C, C26U, G27A, A29U, A30C, G31C
DNA 1: CAATCTGAATTCCGGTCTCCC
DNA 2: TGGTGGCTACGACGGGATT

Biological target: T1, RBFOX1 RRM RbFoxmut (Fox-RRM*)
Experiment: EMSA; HiTS-Eq, 1 nM pool, 10 min; buffer printed only for the single-RNA assays: 10 mM Tris pH 7.5, 150 mM NaCl, 3.4 mM EDTA, 0.001% NP-40, 30 C
Conditions: tags: His6 N-terminal (pET28a); label: 5' 32P
In short: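 Relative association constants, normalised to the cognate motif, were derived by comparing read counts of each RNA species with those of the control reaction. The RNA sequenced was the free fraction, separated by 8% native PAGE after a 10 min equilibration in 50 µL of 1 nM 5′-radiolabelled RNA (7 randomized nucleotides) with increasing concentrations of purified wild-type or mutant RbFox RRM.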

Binder	binding signal
B1	0.133 KA relative to UGCAUGU
B2	0.16 KA relative to UGCAUGU
B3	0.094 KA relative to UGCAUGU
B4	0.106 KA relative to UGCAUGU
B5	0.0732 KA relative to UGCAUGU
B6	0.0949 KA relative to UGCAUGU
B7	0.106 KA relative to UGCAUGU
B8	0.167 KA relative to UGCAUGU
B9	0.118 KA relative to UGCAUGU
B10	0.0819 KA relative to UGCAUGU
B11	0.132 KA relative to UGCAUGU
B12	0.104 KA relative to UGCAUGU
B13	0.0792 KA relative to UGCAUGU
B14	0.142 KA relative to UGCAUGU
B15	0.0835 KA relative to UGCAUGU
B16	0.075 KA relative to UGCAUGU

Binder	binding signal
B17	0.0723 KA relative to UGCAUGU
B18	0.122 KA relative to UGCAUGU
B19	0.107 KA relative to UGCAUGU
B20	0.0413 KA relative to UGCAUGU
B21	0.0612 KA relative to UGCAUGU
B22	0.0568 KA relative to UGCAUGU
B23	0.113 KA relative to UGCAUGU
B24	0.0502 KA relative to UGCAUGU
B25	0.0879 KA relative to UGCAUGU
B26	0.0522 KA relative to UGCAUGU
B27	0.168 KA relative to UGCAUGU
B28	0.0885 KA relative to UGCAUGU
B29	0.0725 KA relative to UGCAUGU
B30	0.0952 KA relative to UGCAUGU
B31	0.0747 KA relative to UGCAUGU
